# Measured values reported in the supplement of paper PMC13380429.
# Experiments:
# Conditions in all cases: 72 h
# [1] = tested on: Caco-2; test: cell viability relative to DMSO; higher = less toxic
# [2] = tested on: Calu-3; test: as above
# [3] = tested on: U2OS; test: as above
# [4] = tested on: Vero E6; test: as above
# [5] = tested on: HepG2; test: as above
# [6] = tested on: HepG2; test: relative viability EC50 (midpoint between 100% and the lowest measured viability); higher = less toxic
# [7] = tested on: Caco-2; test: drug sensitivity score (DSS) for viability; higher = more toxic; extreme values may be limits of the assay
# [8] = tested on: Calu-3; test: as above
# [9] = tested on: U2OS; test: as above
# [10] = tested on: Vero E6; test: as above
# [11] = tested on: HepG2; test: as above
smiles,measurement,setting,value
Cc1ccc(C(=O)NCCCCCC(=O)Nc2ccccc2N)cc1 [RG2833],cell viability,[1]; 1 nM,96.5%
same,cell viability,[1]; 10 nM,96.4%
same,cell viability,[1]; 100 nM,101%
same,cell viability,[1]; 1000 nM,105%
same,cell viability,[1]; 10000 nM,65.8%
same,cell viability,[2]; 1 nM,102%
same,cell viability,[2]; 10 nM,105%
same,cell viability,[2]; 100 nM,97.7%
same,cell viability,[2]; 1000 nM,89.7%
same,cell viability,[2]; 10000 nM,50.5%
same,cell viability,[3]; 1 nM,91.3%
same,cell viability,[3]; 10 nM,100%
same,cell viability,[3]; 100 nM,98.6%
same,cell viability,[3]; 1000 nM,93.3%
same,cell viability,[3]; 10000 nM,53.6%
same,cell viability,[4]; 1 nM,101%
same,cell viability,[4]; 10 nM,94.9%
same,cell viability,[4]; 100 nM,91.8%
same,cell viability,[4]; 1000 nM,91.3%
same,cell viability,[4]; 10000 nM,63.4%
same,cell viability,[5]; 1 nM,98.3%
same,cell viability,[5]; 10 nM,95.1%
same,cell viability,[5]; 100 nM,90.5%
same,cell viability,[5]; 1000 nM,85%
same,cell viability,[5]; 10000 nM,43.2%
same,relative viability EC50,[6],1.62 µM
same,drug sensitivity score,[7],1.3
same,drug sensitivity score,[8],4.3
same,drug sensitivity score,[9],3.5
same,drug sensitivity score,[10],2.9
same,drug sensitivity score,[11],5
